# Assay results taken from the supplement of paper PMC10126150.
# Values marked as one replicate rest on one cluster of the flow cell; about a third of the high ones do not repeat.
# Tested on: ATP
# Assay: switch fluorescence ratio, 500 uM ATP over buffer (Cy3 cluster intensity, sum of 5 cycles each) (fold (ratio)); higher = stronger signal-on switching upon ATP binding; sequences stand for … in TCGTCGGCAGCGTCAGATGTGTATAAGAGACAGTTTTTTTTTTTTTTTTTTTTTTTTT…TC
# Settings: aptamer strand: ATP DNA aptamer (quencher-CACCTGGGGGAGTATTGCGGAGGAAGG + anchor), 100 nM annealed; ATP concentration: 500 uM; one replicate
# In short: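 The quencher-labelled ATP aptamer, at 100 nM, was annealed to Cy3-labelled switching-strand clusters on a modified Illumina MiSeq flow-cell. The clusters were imaged in selection buffer, then after 15 min with 500 uM ATP at 22 °C, and this buffer/ATP cycle ran five times with NaOH stripping and re-annealing between runs. Per-cluster fluorescence ratios, summed target-cycle over summed buffer-cycle Cy3 intensity, were averaged per switch-domain sequence. Clusters outside 100-1000 RFU were excluded.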
# 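Also: ATP exposure 15 min at 22 °C before imaging.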
row,Sequence,switch fluorescence ratio
1,GAAGTGTCTT,1.02
2,GAAGTGTGAC,1.04
3,GAAGTTACTC,1.15
4,GAAGTTAGGA,0.98
5,GAAGTTAGTC,0.989
6,GAAGTTCGAT,1.06
7,GAATAAACGG,1.12
8,GAATAGAGAC,0.964
9,GAATAGGGTC,0.985
10,GAATATACCC,1.05
11,GAATATCGGC,0.982
12,GAATCAACCA,0.998
13,GAATCAACG,1
14,GAATCAGATC,0.999
15,GAATCAGATG,1
16,GAATCAGGA,0.985
17,GAATCATCTT,1.01
18,GAATCCCGCA,1.96
19,GAATCCTGCT,1.03
20,GAATCGGCAA,3.88
21,GAATCTAGGT,1.15
22,GAATCTGTTT,0.98
23,GAATGAATTA,0.991
24,GAATGAGAGG,0.978
25,GAATGGAAGG,0.974

row,Sequence,switch fluorescence ratio
1,GAATGGGTGT,1.01
2,GAATGGTGGC,0.98
3,GAATTACAAA,0.981
4,GAATTCATTA,1.01
5,GAATTTATAA,0.941
6,GAATTTCAA,0.982
7,GAATTTCTCC,1.05
8,GAATTTTCGA,1.01
9,GACAAAAATT,0.996
10,GACAAAAGTT,0.985
11,GACAAAATAA,1.04
12,GACAAAGGCA,0.974
13,GACAACTCAG,1.02
14,GACAAGACGA,1.31
15,GACAAGGCCA,1.04
16,GACAAGGCTG,1.03
17,GACAATAAAT,1.06
18,GACAATGAAG,0.974
19,GACACAGT,1
20,GACACCATCA,1.02
21,GACACCTGGG,1
22,GACACGCGCT,0.983
23,GACACGGAGC,1.12
24,GACACTCAAG,1.02
25,GACACTTACT,1.37

row,Sequence,switch fluorescence ratio
1,GACAGACTCC,1.46
2,GACAGAGGCA,1.03
3,GACAGCTAAA,1.08
4,GACAGGAGGA,0.983
5,GACAGGCTCG,1.05
6,GACAGGTTAC,1.08
7,GACAGGTTTG,1.03
8,GACAGTGGGG,0.985
9,GACAGTTGAT,0.995
10,GACATAGCCG,1.02
11,GACATAGTAG,1.02
12,GACATCAGAC,1.06
13,GACATCTATG,1.02
14,GACATGGCCG,1.06
15,GACATTGTCG,1.01
16,GACCAGGCAA,1.17
17,GACCAGGTAC,1.31
18,GACCATGTCG,1.1
19,GACCCATCTT,0.984
20,GACCCGAGG,0.928
21,GACCCGCGGC,1.02
22,GACCCGTTTG,0.99
23,GACCCTGCA,1.12
24,GACCGAATCA,0.989
25,GACCGAGTGG,0.983

row,Sequence,switch fluorescence ratio
1,GACCGAGTTA,0.982
2,GACCGGGACT,0.985
3,GACCGGTAAT,0.988
4,GACCGGTTGG,0.986
5,GACCGTATTG,1.03
6,GACCGTCTCG,1.03
7,GACCGTGTAC,2.07
8,GACCGTTAGT,1
9,GACCTATGGT,1.02
10,GACCTATTTA,1.03
11,GACCTGAGTG,1
12,GACCTGCGAA,1.13
13,GACCTGCGGT,1
14,GACCTGCTGC,1.09
15,GACCTGGGGA,1.02
16,GACCTGTGCA,1.03
17,GACCTTGGTT,1.04
18,GACCTTGTTG,1.02
19,GACCTTGTTT,1
20,GACGAAGGAT,1
21,GACGAAGGGA,1.1
22,GACGACAAAA,1.13
23,GACGAGACAT,1.17
24,GACGAGCACT,1.82
25,GACGAGTTCA,0.991

row,Sequence,switch fluorescence ratio
1,GACGATACTA,1.38
2,GACGATTCCT,1.02
3,GACGATTTGT,0.965
4,GACGCAGCTT,1.21
5,GACGCCAGAA,1.22
6,GACGCGACGG,1.07
7,GACGCGGGCT,1.1
8,GACGCTCAGA,1.07
9,GACGCTGTAG,1.19
10,GACGGCTTGT,0.988
11,GACGGGAACA,1.31
12,GACGGGAAGC,1.01
13,GACGGGAGTC,0.967
14,GACGGGCAAC,6.33
15,GACGGTAGTC,0.971
16,GACGGTTCTC,1
17,GACGTAAGTC,1.01
18,GACGTACAGA,1.67
19,GACGTAGGG,0.994
20,GACGTAGGGA,1.03
21,GACGTATCGA,1.01
22,GACGTCCGAA,1.09
23,GACGTCCGGG,0.989
24,GACGTCCTCT,1.01
25,GACGTCCTTT,0.989

row,Sequence,switch fluorescence ratio
1,GACGTGATTA,1.2
2,GACGTGGCTA,1.04
3,GACGTGTTAG,1.03
4,GACGTTATC,1.19
5,GACGTTGGC,1.02
6,GACGTTTAGA,1.03
7,GACTAAGCAC,1.39
8,GACTAATTGC,0.995
9,GACTAGGTAG,1.03
10,GACTATGGCA,0.956
11,GACTATGTCC,0.975
12,GACTCAACGG,0.987
13,GACTCTGAGC,1.03
14,GACTCTGCCG,1.06
15,GACTGAACCC,1.1
16,GACTGAGAAC,1.01
17,GACTGAGTGT,0.981
18,GACTGCGAGT,1.02
19,GACTGGCCAA,1.04
20,GACTTACTAG,1.11
21,GACTTCAGGA,0.996
22,GACTTCCTGG,0.959
23,GACTTCGAGA,1.08
24,GACTTGCACT,1.13
25,GACTTTATAT,1.01

row,Sequence,switch fluorescence ratio
1,GACTTTATTC,1.01
2,GAGAAAAATC,1.01
3,GAGAAAACAG,0.941
4,GAGAAACAGC,0.962
5,GAGAAAGCGC,1
6,GAGAAATCAG,1.01
7,GAGAAGAGAA,0.97
8,GAGAAGTTGG,0.979
9,GAGAATCCG,1.01
10,GAGAATTAGT,1.04
11,GAGAATTTAT,0.983
12,GAGAATTTCA,0.968
13,GAGACACTCT,0.958
14,GAGACAGA,1.03
15,GAGACCAGTG,1.04
16,GAGACGTCAG,1.19
17,GAGACTGGTG,1.01
18,GAGAGCAGT,1.02
19,GAGAGCTCGG,0.992
20,GAGAGTAGGA,1.01
21,GAGAGTCTGG,0.937
22,GAGAGTTTTG,0.957
23,GAGATAACG,0.945
24,GAGATAAGGT,0.986
25,GAGATACAAA,1

row,Sequence,switch fluorescence ratio
1,GAGATCCGCA,1.74
2,GAGATCTCAG,1.02
3,GAGATGACAT,1.02
4,GAGATGAGGG,0.984
5,GAGATGGGAG,1.02
6,GAGATTCAGG,0.984
7,GAGATTTAAG,1.03
8,GAGATTTGT,1.02
9,GAGCAAAAGA,1.25
10,GAGCAAACTC,3.67
11,GAGCAAGTCC,1.65
12,GAGCACTTCT,1.02
13,GAGCAGTGTC,1.07
14,GAGCATACGG,1.2
15,GAGCATAGGA,1.06
16,GAGCATCCAT,1.05
17,GAGCATTGTT,1.02
18,GAGCCAGCCT,1.04
19,GAGCCAGCTT,0.978
20,GAGCCAGTAT,1.02
21,GAGCCGACGG,1.03
22,GAGCCTGTGA,1.03
23,GAGCGACTTG,0.996
24,GAGCGAGTAA,1.02
25,GAGCGGTAGA,0.974
